Assay results from BigSolDB 2.1.

Details: 298.15 K

COc1ccc2cc([C@H](C)C(=O)O)ccc2c1
Details	solubility (mole fraction)
in acetone	0.047
in acetonitrile	0.00598
in chlorobenzene	0.00636
in chloroform	0.0255
in cyclohexane	7.5e-05
in ethanol	0.0139
in ethyl acetate	0.0244
in ethylene glycol	0.00284
in isopropanol	0.0126
in methanol	0.0122
in n-heptane	3.88e-05
in n-hexane	3.2e-05
in n-pentane	2.22e-05
in n-propanol	0.0133
in tetrachloromethane	0.00172
in toluene	0.00347
